Results reported in article PMC12136788.
The list shows a part of the results.

T1: UNK ZnF1-3 (human, UniProt Q9C0B0 31-174)
T1 sequence: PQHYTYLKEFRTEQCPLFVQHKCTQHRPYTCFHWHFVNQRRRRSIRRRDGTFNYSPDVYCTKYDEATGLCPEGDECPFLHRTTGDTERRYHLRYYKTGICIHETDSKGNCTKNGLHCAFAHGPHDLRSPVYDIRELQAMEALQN

B1: 86677321_86679958_414_CDS_ENSMUSG00000034290_ENSMUST00000040992|mouse|control|control (ssRNA)
RNA: GGGAGUUCUACAGUCCGACGAUCGAUGUUGUCGUGCUGUAGCAGUGCCAGGAUGACAAUCUCAUUCAGGGCAUCUCGACGUUCCUUCUCAGAUAGCCGGGUCAAGUCAACUUCCUUCCACACCACCAGUGAGUCGUCCUCGGUCAACAGAGGAUUGAGCAUCA
B2: chr1:163117072:163117073:-_ENSG00000143248_ENST00000313961|hu_hu|motif|central (ssRNA)
RNA: GGGAGUUCUACAGUCCGACGAUCGGAAAUGCAGGGUUAUUAUGGAGGAAAUAACUCACAGGAUGAUUUCAUAGCCUGGCGGAAUUACUACUUGAUUAACUCCUGAUAAAACUCAGAGCGCACAAAGCGAGGCAGAGAAUCCUUCAACAGAGGAUUGAGCAUCA
B3: 3201580_3205767_5695_CDS_ENSG00000197386_ENST00000355072|human|control|control (ssRNA)
RNA: GGGAGUUCUACAGUCCGACGAUCACUAAGUAACUUUGUGCUGGACAGACUGUGUCUUUUCGGGGUCUGCUGCACUUCUGCCCACCAGCGGUAGUCGGUGUGGUUGACAAGCAGCAGUAUCUGACACCAGAGCAGCACCAGGGCCAACAGAGGAUUGAGCAUCA
B4: chr2:146230686:146230687:-_ENSMUSG00000037110_ENSMUST00000109986|mus_hu|FALSE|FALSE (ssRNA)
RNA: GGGAGUUCUACAGUCCGACGAUCGUAACCAAUGACGGGCAUCAGCAUCAGCCACAACAUCUGUGGGAGUAUUCAGUUCUGGGUCUUCCUCACAGGUCUGCCAUGGGCCCAUGGACAGCUCUGCCUCAUUGGUACAGCCCAGAGCAACAGAGGAUUGAGCAUCA
B5: 60629684_60631069_663_3pUTR_ENSG00000146872_ENST00000343388|human|control|control (ssRNA)
RNA: GGGAGUUCUACAGUCCGACGAUCUCUUACUGUUUUCUAGUGCAGAUAUUUUUUCUAUUGUGAGGUCGGACUGGGUCUGUCUGUGCUGGAUGGAGAUCUGUUUUUGGGAGCUGCAGGAAUGCUCUGUGUUGCCAGAUCCCGUAGCAACAGAGGAUUGAGCAUCA
B6: chr2:64323713:64323714:-_ENSG00000197329_ENST00000358912|hu_mus|FALSE|FALSE (ssRNA)
RNA: GGGAGUUCUACAGUCCGACGAUCGCUUUGUACUGACUGCGUGUCGGAAUUACUCUGACUUCCAGGAACGGUGUCAGUUACUACAAAAUCAAUAGGACUUUCAGUUGACCGACCAAUCUGAAACAUAUCAGUGUUGCUGUCAUGCAACAGAGGAUUGAGCAUCA

molecular target: T1, UNK ZnF1-3; assay: nsRBNS (natural sequence RNA bind-n-seq); RBNS binding buffer (assumed for nsRBNS): 25 mM Tris pH 7.5, 150 mM KCl, 3 mM MgCl2, 0.01% Triton X-100, 500 ug/ml BSA, 20 U/ml SUPERase-In, 4 C; UNK is unkempt and MSI1 is Musashi-1; names of the RNAs are library labels; protein concentration not given here; high values mean tight binding

Question: With B1 as the binder, how does the binding signal read?
Answer: The binding signal was 0.623 enrichment R.

Question: With B2 as the binder, how does the binding signal read?
Answer: Its binding signal is 1.53 enrichment R.

Question: How did the binding signal turn out when B3 was run?
Answer: The binding signal was 0.698 enrichment R.

Question: Which binding signal does the source give for B4 here?
Answer: Its binding signal is 1.11 enrichment R.

Question: Which binding signal does the source give for B5 here?
Answer: The binding signal was 0.544 enrichment R.

Question: How did the binding signal turn out when B6 was run?
Answer: The binding signal was 0.382 enrichment R.
